PubChem BioAssay AID686979 (National Center for Advancing Translational Sciences (NCATS), 2013)
Among all 420,000 compounds or so, about 50,000 (12%) were called active. The inconclusive results got no clear call from the source; some entries with a clear call stand among them for comparison. Calls come from the whole dose curve; as a rule, active = well fitted inhibition curve with a large enough effect; inconclusive = small, poorly fitted or top-dose-only effect; inactive = flat fitted curve, though single readings scatter. No potency is given beside an inconclusive call; the fits are too rough.

Test: qHTS for Inhibitors of human tyrosyl-DNA phosphodiesterase 1 (TDP1): qHTS in cells in presence of CPT; note: nearly all actives have a fitted effect of over 55% in size
Conditions: chicken DT40 Tdp1-/-;hTDP1 cells + 20 nM CPT, ATP luminescence, 48 h; activity change, negative = growth inhibition: at 46.2 µM (top of the series)
Summary of the method: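 Chicken DT40 Tdp1-/- cells stably complemented with human TDP1 were seeded at 400 cells/well in medium containing 20 nM camptothecin, exposed to pin-transferred compounds, and grown at 37 °C for at least 48 hr. Viability was read as ATP luminescence.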
% is set by controls: 0 for no effect and ±100 for the full control effect; potency is the fitted concentration of half-maximal effect; tags give direction and shape of the fitted curve.

| SMILES | activity change, negative = growth inhibition | Potency |
| --- | --- | --- |
| C[C@@H]1O[C@@H](OC[C@@H]2O[C@H](Oc3c(-c4ccc(O)cc4)oc4cc(O)cc(O)c4c3=O)[C@@H](O)[C@H](O)[C@H]2O)[C@H](O)[C@H](O)[C@H]1O | inactive: -2.39% | – |
| CCCCCCCCCCCCCCCCn1cc[n+](CC(C)=O)c1 | – | active: 0.651 µM |
| Fc1ccccc1-c1nc(N2CCN(c3cccc(Cl)c3)CC2)c2ccccc2n1 | – | active: 13 µM |
| COc1ccc(Cc2nc3ccc(C(=O)N(C)CCc4cnn(C)c4)cc3o2)cc1OC | – | inconclusive [inhibitor, single point] |
| CCOc1ccc(CCNC(=O)c2cc(=O)[nH]c3ccc(S(=O)(=O)N4CCCCC4C)cc23)cc1OCC (stereo not given) | – | inconclusive [inhibitor, single point] |
| NS(=O)(=O)c1ccc(CNc2ncnc3sccc23)cc1 | – | inconclusive [inhibitor, single point] |
| CCC(=O)Nc1c(S(=O)(=O)c2ccccc2)c2nc3ccccc3nc2n1C(C)c1ccccc1 (stereo not given) | – | inconclusive [inhibitor, single point] |
| COC(=O)C1=C(C)NC(=O)CC1c1cc(Br)ccc1F (stereo not given) | – | inconclusive [inhibitor, single point] |
| Cc1ccc(-c2noc(CCC(=O)N(C)c3ccccc3F)n2)cc1 | – | inconclusive [inhibitor, single point] |
| O=C(Nc1ccc(S(=O)(=O)N2CCCCC2)cc1)C1CC(=O)N(c2ccccc2)C1 (stereo not given) | – | inconclusive [inhibitor, single point] |
| CCn1c(/N=C/c2c[nH]c3ccccc23)nc2ccccc21 | – | inconclusive [inhibitor, single point] |
| CCn1c(=O)c2c(nc3n2CCN3c2ccc(OC)cc2)n(C)c1=O | – | inconclusive [inhibitor, full curve, poor fit] |
| Cc1ccc(OCc2cc(C(=O)N3CCN(C4CCCCC4)CC3)no2)cc1C | – | active: 16.4 µM |
| Cc1cccc(N2CCN(CC(O)COc3ccc(Cl)cc3)CC2)c1 (stereo not given) | – | inconclusive [inhibitor, single point] |
| C/C(=N\NC(=O)c1nnn(-c2nonc2N)c1CN1CCC(C)CC1)c1ccc(Br)cc1 | – | inconclusive [inhibitor, partial curve] |
| O=C(Nc1ccc(NC(=O)c2cccs2)cn1)c1ccccc1 | – | inconclusive [inhibitor, single point] |
| COc1ccc(CCNC2=CC(=O)CC(C)(C)C2)cc1 | inconclusive: -30.5% [inhibitor] | – |
| c1ccc(-c2nnc3nc(N4CCCCC4)nc(N4CCCCC4)n23)cc1 | – | active: 18.4 µM |
| O=C(NN=C1CCCC1)c1ccc(Cl)cc1 | inactive: 14.3% | – |
| CCCCNC(=S)N/N=C/c1ccccc1F | – | inconclusive [inhibitor, single point] |
| CC(=O)c1ccc(NC(=O)/C(Cl)=C/c2ccccc2)cc1 | inactive: 4.87% | – |
| O=C(Nc1ccccc1N1CCCCC1)C1CCN(C(=O)c2ccc(Cl)cc2)CC1 | – | active: 23.1 µM |
| CN[C@H]1C[C@@H](c2ccccc2)N(C(C)=O)C[C@H]1CO | – | inconclusive [inhibitor, partial curve] |
| CC12CCC(=O)N1C(C(=O)Nc1cc(Cl)ccc1N1CCCC1)CS2 (stereo not given) | inactive: 3.69% | – |

| SMILES | activity change, negative = growth inhibition | Potency |
| --- | --- | --- |
| CCOc1ccc(N2C(=O)CC(NCC#N)C2=O)cc1 (stereo not given) | – | inconclusive [inhibitor, single point] |
| O=C1C2C3C=CC(C3)C2C(=O)N1CCCCCCN1C(=O)C2C3C=CC(C3)C2C1=O (stereo not given) | – | inconclusive [inhibitor, partial curve] |
| CCOC(=O)c1c(C)n(-c2ccc(OC)cc2)c2ccc(OC(=O)COc3ccccc3)cc12 | – | inconclusive [inhibitor, single point] |
| Cc1ccc(-c2noc(CCC(=O)Nc3ccc4c(c3)OCO4)n2)cc1 | – | inconclusive [inhibitor, single point] |
| Cc1ccc(S(=O)(=O)CCC(=O)Nc2nnc(-c3ccccc3S(C)(=O)=O)o2)cc1 | inactive: -20.3% | – |
| COc1ccc(CNC(=O)CCc2c(C)nc3c(c(C)nn3-c3ccccc3)c2C)cc1 | – | inconclusive [inhibitor, single point] |
| COc1ccc(-c2c(C(F)(F)F)oc3cc(OCC(=O)Nc4ccccc4C(F)(F)F)ccc3c2=O)cc1OC | – | inconclusive [inhibitor, single point] |
| O=C(/C=C/c1cccc(F)c1)Nc1ccc(S(=O)(=O)N2CCOCC2)cc1 | – | inconclusive [inhibitor, single point] |
| OC(CNc1nc(-c2cccnc2)nc2ccccc12)c1ccccc1 (stereo not given) | – | active: 14.6 µM |
| Nc1ccc(S(=O)(=O)NC2(C(F)(F)F)NC(=O)N(Cc3ccccc3)C2=O)cc1 (stereo not given) | inactive: 8.96% | – |
| CC(C)C[C@@H]1COc2cc(N3CCC[C@H]3CO)ccc2S(=O)(=O)N1 | inactive: -12% | – |
| COc1cccc(-c2nn(-c3ccccc3)cc2C(=O)Nc2nccs2)c1 | – | inconclusive [inhibitor, single point] |
| Cc1ccc(C(=O)Nc2nc(-c3ccccn3)cs2)cc1S(=O)(=O)N1CCOCC1 | – | active: 1.3 µM |
| CN1C[C@H]2c3ccccc3Oc3ccc(Cl)cc3[C@@H]2C1 | – | inconclusive [inhibitor, single point] |
| CC1CN(C(=O)COC(=O)c2ccc(Cl)c(N)c2)CC(C)O1 (stereo not given) | inactive: 7.28% | – |
| Cc1ccc(-n2ncc3c(Nc4cccc(Cl)c4)ncnc32)c(C)c1 | – | inconclusive [inhibitor, single point] |
| CCC(=O)OCOc1ccc(/C=C2/CCC(CN(C)C)C2=O)cc1 (stereo not given) | – | active: 2.31 µM |
| Fc1ccc(-c2csc(NC3=NCCC3)n2)cc1 | inconclusive: -31.3% [inhibitor] | – |
| Cc1cc(C)nc(NC(=O)/C=C/c2ccc3c(c2)OCO3)c1 | inactive: 3.75% | – |
| Cc1ccc(C(=O)OC2CCCN(C)C2)cc1 (stereo not given) | – | inconclusive [inhibitor, single point] |
| CC(C)c1nnc(N2C(=O)c3oc4ccccc4c(=O)c3C2c2ccccc2F)s1 (stereo not given) | – | inconclusive [inhibitor, single point] |
| CCCCC(=O)NC(c1ccccc1OC)c1ccc2cccnc2c1O (stereo not given) | – | active: 20.6 µM |
| CCc1ccc(CNC(=O)CCc2c(C)nn(-c3ccc(N4CCCC4)nn3)c2C)cc1 | – | inconclusive [inhibitor, single point] |
| CN(C(=O)CN1C(=O)S/C(=C\c2cccc(Cl)c2)C1=O)C1CCS(=O)(=O)C1 (stereo not given) | – | inconclusive [inhibitor, single point] |

| SMILES | activity change, negative = growth inhibition | Potency |
| --- | --- | --- |
| c1ccc([C@H]2CN3CCSC3=N2)cc1 | – | inconclusive [inhibitor, single point] |
| COc1cc(NC(=O)C2=CC(c3ccc(F)cc3)=NS(=O)(=O)N2C)cc(OC)c1OC | – | inconclusive [inhibitor, single point] |
| CC(C)CCn1c(SC(C)C#N)nc2ccccc2c1=O (stereo not given) | – | inconclusive [inhibitor, single point] |
| CC(=O)c1sc(NC(=O)c2ccc(F)c(S(=O)(=O)N3CCOCC3)c2)nc1C | inactive: -17.7% | – |
| CCCCn1c(N)c(N(Cc2ccccc2OC)C(=O)CSCC(=O)Nc2cccc(C)c2)c(=O)[nH]c1=O | – | inconclusive [inhibitor, single point] |
| Cc1noc(C)c1-c1ccc(C(=O)NC2CCCCC2)c2occc12 | – | active: 16.4 µM |
| Cc1cc(=O)c(C(=O)O)nn1-c1ccc(Cl)cc1 | inactive: -1.15% | – |
| CCN(Cc1ccccc1)C(=O)C1CCN(S(=O)(=O)c2ccc3c(c2)CCCN3C(C)=O)CC1 | – | inconclusive [inhibitor, single point] |
| CC1CCCCN1C(=S)NC(=O)c1cccs1 (stereo not given) | – | inconclusive [inhibitor, single point] |
| O=C(CSc1nccn1Cc1ccc(F)cc1)Nc1nc2ccccc2s1 | – | active: 18.4 µM |
| Fc1ccc(CSc2nnc(-c3cccnc3)n2Cc2ccco2)cc1 | – | inconclusive [inhibitor, single point] |
| CN(C)CCCC1Sc2ccccc2Sc2ccccc21 (stereo not given) | – | inconclusive [inhibitor, single point] |
| Cc1cc(C)n(-c2nc3ccccc3c(=O)n2OCCOc2ccccc2)n1 | – | active: 11.6 µM |
| N#CC(C(=O)OC1CCCCC1)c1nc2ccccc2nc1N1CCOCC1 (stereo not given) | – | inconclusive [inhibitor, partial curve] |
| O=C1CCN(Cc2ccccc2)C=C1c1ccc(Br)cc1 | – | active: 18.4 µM |
| CSCC[C@H](NC(=O)OC(C)(C)C)C(=O)N1CCC(C(=O)N[C@@H](Cc2c[nH]c3ccccc23)C(=O)O)CC1 | inactive: -0.28% | – |
| COc1ccc(S(=O)(=O)N2c3ccccc3OCC2CC(=O)O)cc1 (stereo not given) | – | inconclusive [inhibitor, single point] |
| Cc1ncc([N+](=O)[O-])n1S(=O)(=O)c1ccc2c(c1)OCCO2 | inactive: 1.36% | – |
| c1ccc(-c2ccc(C3=Nn4c(Cn5nnc6ccccc65)nnc4SC3)cc2)cc1 | – | active: 23.1 µM |
| CCn1nnnc1NCc1ccc(OCc2c(F)cccc2Cl)c(OC)c1 | – | inconclusive [inhibitor, single point] |
| CCOC(=O)c1cc2c(=Cc3ccc(N(C)C)cc3)c3ccccc3n2[n+]1C | – | active: 0.58 µM |
| COc1ccc(-c2coc3c(C(=O)NCc4ccc(C(F)(F)F)cc4)cccc23)c(C)c1 | – | inconclusive [inhibitor, single point] |
